# Laboratory results as given in the supplement of paper PMC3334620.
# In all, about 33,000 sequences were measured (“E-score (-0.5 to 0.5)”: median about -0.036, highest 2% from about 0.37 on). The list shows a part of the results.
# Molecular target: T1, Yer064c (UniProt P40041)
# T1 sequence: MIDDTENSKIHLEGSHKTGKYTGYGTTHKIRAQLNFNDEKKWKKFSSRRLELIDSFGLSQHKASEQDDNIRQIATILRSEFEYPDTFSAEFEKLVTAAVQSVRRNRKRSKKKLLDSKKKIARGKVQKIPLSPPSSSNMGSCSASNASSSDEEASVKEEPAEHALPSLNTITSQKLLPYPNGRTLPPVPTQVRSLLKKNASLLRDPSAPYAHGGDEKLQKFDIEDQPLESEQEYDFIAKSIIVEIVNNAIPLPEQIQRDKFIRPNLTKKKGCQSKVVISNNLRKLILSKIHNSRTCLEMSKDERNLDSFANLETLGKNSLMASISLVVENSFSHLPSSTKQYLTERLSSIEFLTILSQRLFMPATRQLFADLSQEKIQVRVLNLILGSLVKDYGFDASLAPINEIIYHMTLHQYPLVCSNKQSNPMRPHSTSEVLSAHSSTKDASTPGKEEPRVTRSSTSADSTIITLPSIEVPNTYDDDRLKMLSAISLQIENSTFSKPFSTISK
# Test: PBM E-score (8-mer binding enrichment) (E-score (-0.5 to 0.5)); higher = stronger / more preferred TF binding; most listed sequences are background and not binding sites
# Settings: protein concentration: 200 nM; construct: GST-full length
# Outline: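 E-scores (a modified Wilcoxon-Mann-Whitney statistic) were assigned by the Universal PBM Analysis Suite to every ungapped eight-base word pooled with its reverse complement. The input came from universal all-10-mer Agilent arrays made double-stranded by primer extension and probed with GST-tagged yeast transcription factors at about 100-200 nM. Fluorescent anti-GST detected bound protein, and masliner normalised the scans.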
row,Sequence,PBM E-score
1,CGGACACG,-0.147
2,AAGTATCC,-0.102
3,AACTGTAG,-0.064
4,CGGGGGTC,-0.27
5,AAATACAA,-0.0192
6,GCCTGTAC,-0.18
7,CACTTCGC,0.0268
8,CATGAAAA,0.115
9,GGGAACCC,-0.0877
10,CCGGCTCG,-0.0379
11,CGACGAGA,-0.0295
12,TACATCAA,0.0145
13,CCGACTCG,0.296
14,AGATTTGG,-0.0761
15,CACAACCA,0.119
16,GAGTGGGC,-0.11
17,AATTCTGC,-0.0838
18,AAGCGGCG,-0.166
19,ATACCGAG,0.133
20,CGTCATGA,0.253
21,ATATGTGC,-0.051
22,CGTGAACA,-0.0467
23,AATTAGGC,-0.0732
24,CTCATTTC,0.104
25,ACTGGTAC,0.0153

row,Sequence,PBM E-score
1,ATTTGCCC,-0.156
2,GGGTATTA,-0.119
3,ACGAGGTC,0.0939
4,ACCCGAAA,0.00346
5,AGCATTAT,0.0325
6,GCGGGTAA,0.0295
7,CATAGAGG,-0.132
8,GGCCGTAC,-0.0687
9,CAGTCATC,0.467
10,CCACCTGC,-0.296
11,CGTACCGA,0.0204
12,CCTTTCTC,-0.136
13,CTGCATCC,-0.0702
14,ACAAACAA,0.158
15,ATATATTC,0.00456
16,CCCCCATC,-0.407
17,CCTAATTA,-0.151
18,AATCCGGC,-0.099
19,GTCCTTAA,0.288
20,CGTAATAG,-0.0806
21,TAGGTCAA,0.176
22,ATAGTCTA,0.216
23,TCCGTCCA,-0.0212
24,GCGGTTAC,0.0193
25,CAAGTTTA,0.00738

row,Sequence,PBM E-score
1,GATCGAAC,-0.088
2,CCCAGTGC,-0.27
3,AGTTTCTG,0.083
4,GAGCTTCA,-0.142
5,GTTTTGCA,0.0104
6,AGCTCTCA,-0.301
7,CGAACGAA,-0.125
8,CTAAGCAA,0.109
9,AAGCTCTG,-0.165
10,GTTTAGTA,0.0856
11,ACGAATTG,-0.115
12,TAACAGCA,-0.0356
13,GCTGAGGA,-0.25
14,ACGGTTAG,-0.0193
15,AACAGCAC,-0.0633
16,AGGAATGC,-0.118
17,AATCCGAG,0.02
18,CTTTGACC,-0.0306
19,GGCCTTGA,0.103
20,TCTTTCAA,0.013
21,CGGATTCA,0.194
22,GCATCGGA,-0.142
23,AATCTCTC,-0.126
24,ACGTACCA,-0.339
25,CCCTCCTC,-0.115

row,Sequence,PBM E-score
1,ACCACTCG,0.0857
2,GTAGTGGA,-0.0345
3,AGTCTTTG,0.357
4,AAATAAGT,0.195
5,ATAGCAGC,-0.292
6,ATACATAC,-0.00217
7,ACCCTAGC,-0.144
8,ATGCACGA,-0.0234
9,CACAAACC,-0.213
10,ACTTCTAT,0.0533
11,CCTCCAGG,-0.29
12,AACTACAT,0.113
13,CTCAGGAC,0.0799
14,CATCTCTA,0.0447
15,AAGAACCG,0.0631
16,ACATTCCT,-0.0557
17,CCAGCACG,-0.31
18,CCCCCAAG,-0.0707
19,AGCCGAAC,-0.245
20,GACCGCAA,-0.257
21,GCGGTTCA,-0.0103
22,GCAACCTA,-0.00047
23,TGGGACAA,-0.137
24,CGCCGATC,-0.219
25,ATAAACAC,0.0336

row,Sequence,PBM E-score
1,GCCAAAAA,0.0564
2,ACGAACAG,-0.194
3,GCACCGCC,-0.111
4,ACGATCTG,-0.125
5,AGCAGGGC,-0.393
6,CTGGTATC,-0.192
7,CGCCCTGA,0.0302
8,GCATGAAA,-0.0118
9,GATCGGTA,0.041
10,AAGACATT,-0.0824
11,ACATGGAG,-0.0726
12,GAGCTCCA,-0.0442
13,ACAAGTGT,-0.102
14,AGCATCAC,-0.0522
15,ATAATTAA,0.213
16,GAGTGGCA,-0.129
17,AGTCTCAA,0.349
18,ACTACCTG,0.121
19,GTACACAC,0.146
20,ACAAGGCA,-0.128
21,CAGCCACG,0.138
22,GACAAGGA,0.0406
23,CTAGTGCC,-0.247
24,AAACTCTT,-0.0204
25,AGGATACA,-0.0458

row,Sequence,PBM E-score
1,GTGGCGGA,-0.0913
2,CCTTGGAA,-0.185
3,CGAAGAAG,-0.0186
4,GAACGGGA,-0.136
5,ACCCAAGC,-0.00186
6,AATCCGTC,-0.118
7,AGAAATCC,-0.262
8,AGGGATTA,0.00676
9,ACTACCAC,0.196
10,CCTGAGCA,-0.129
11,ACCGTCGA,-0.128
12,ATTGAGAA,0.178
13,GGCGTAAA,-0.13
14,ACCTGTCG,-0.106
15,CGTCGAAG,-0.0459
16,AGTGGTAA,0.0692
17,CGAAGATC,-0.0635
18,CGTCCATC,-0.102
19,TGACTAAA,0.484
20,CTTGATGA,0.28
21,CTAAATAC,0.0883
22,TAACCAAA,0.0296
23,TGGGCCCA,-0.123
24,ACTAGGTA,0.247
25,CCGACATA,0.0252

row,Sequence,PBM E-score
1,AAAAGGCT,-0.0897
2,ACATTGCT,-0.14
3,CGGTCCTA,-0.132
4,TGGGGAAA,0.00957
5,CTTGTTGA,0.228
6,AATTCTAA,0.00551
7,AAACATCG,-0.0777
8,CAGCATAA,-0.028
9,CATAAAAA,0.171
10,CCTAAATC,0.167
11,GGATTCAA,0.18
12,GACGAGGC,-0.209
13,TAGCCACA,0.14
14,TCTTCCAA,0.0579
15,AACACCTT,-0.083
16,AGTAGACT,0.208
17,GACGTTCC,-0.347
18,ATAGGTTA,-0.0944
19,GAATACTA,0.0512
20,AATCCGTG,-0.191
21,CAGGAGAA,0.0117
22,CGTGCGGA,0.0369
